Among all 420,000 compounds or so, about 64,000 (15%) were called active. Inconclusive means that the source gave no clear call. Such entries were picked first, then a sample of the others. Calls come from the whole dose curve; as a rule, active = well fitted inhibition curve with a large enough effect; inconclusive = small, poorly fitted or top-dose-only effect; inactive = flat fitted curve, though single readings scatter. No potency is given beside an inconclusive call; the fits are too rough.
Test: qHTS for Inhibitors of human tyrosyl-DNA phosphodiesterase 1 (TDP1): qHTS in cells in absence of CPT; note: nearly all actives have a fitted effect of over 55% in size
Settings: DT40 Tdp1-/- hTDP1 cells, no CPT, ATP luminescence, 48 h; series mostly up to 46.2 µM
Procedure, shortened: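 Readout: luminescence from CellTiter-Glo after 30 min in the dark at RT. Cells: DT40 Tdp1-/- with stable hTDP1, 400/well. Exposure: compounds alone, ≥48 hr, 37 °C.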
For `CCSc1nc2n(n1)C(c1ccc(Cl)cc1Cl)C(C(=O)Nc1ccccc1C)=C(C)N2` (stereo not given), the Potency was active: 13 µM. In the case of `CN1C(=O)C(Cc2cccc3ccccc23)C(=O)N(C)C1=O`, the Potency is reported as inconclusive [inhibitor, single point]. In the case of `CCOC(=O)[C@]12Cc3cc(OC)ccc3[C@H]1N(C(C)C)C(=O)c1ccccc12`, the Potency is reported as active: 6.51 µM. For `NC(=O)Oc1ccc(Cc2ccccc2)cc1`, the Potency was inconclusive [inhibitor, single point]. With `CC(=Nc1ccc2c(c1)CCC2)c1c(O)n(C)c(=O)n(C)c1=O` the Potency was “inactive”. For `FC(F)(F)c1cccc(N2CCNCC2)c1`, the Potency was inconclusive [inhibitor, single point]. For `O=C(O)c1cc[c]([Hg][Cl])cc1`, the Potency was active: 0.92 µM. With `C=CC[C@@H](CC(=O)N[C@H](CO)Cc1ccccc1)C(=O)NCCOC(=O)[C@@H](CC=C)Cc1ccc(F)cc1` the Potency was inconclusive [inhibitor, single point]. With `CCOC(=O)c1nc2ccccc2c(=O)n1-c1cccc(C)c1` the Potency was inconclusive [inhibitor, full curve, poor fit]. With `CCC(C)OC(=O)c1c(N)n(Cc2cccs2)c2nc3ccccc3nc12` (stereo not given) the Potency was inconclusive [inhibitor, single point]. In the case of `COc1cc(=O)n2c(c1C(=O)N(C)Cc1nonc1C)CCN(C(=O)C1C(C)(C)C1(C)C)CC2`, the Potency is reported as “inactive”. With `CC(C)(C)c1csc(NC(=O)Nc2ccccc2)n1` the Potency was inconclusive [inhibitor, single point]. In the case of `Cc1ccc(-n2nc3c(N4CCC(C(=O)NCc5ccccc5Cl)CC4)nnc(C)c3c2C)cc1`, the Potency is reported as active: 5.8 µM. With `CC1CC(Cl)CCC1C(=O)OC(C)(C)C` (stereo not given) the Potency was “inactive”. With `COc1ccc(CCNC(=O)CCCCn2c(=O)c3ccccc3n(Cc3ccccc3Cl)c2=O)cc1OC` the Potency was inconclusive [inhibitor, full curve]. In the case of `Cc1ccc(-n2nc3c(=O)n(CC(=O)NCC(C)c4ccccc4)nc(C)c3c2C)cc1` (stereo not given), the Potency is reported as inconclusive [inhibitor, partial curve, poor fit]. In the case of `O=C1NC(=S)N(c2ccccc2F)C(=O)/C1=C\c1cccs1`, the Potency is reported as inconclusive [inhibitor, single point]. For `O=C(C1CC(c2ccc(F)cc2)=NO1)N1CCC2(CC1)OCCO2` (stereo not given), the Potency was “inactive”. For `CCC1(CC(C)c2ccccc2)C(=O)NC(=O)NC1=O` (stereo not given), the Potency was “inactive”. In the case of `CC(C)(C)c1nc(N2CCN(C(=O)c3ccco3)CC2)c2nnn(Cc3ccccc3Cl)c2n1`, the Potency is reported as active: 20.6 µM.

From PubChem BioAssay AID686978 (National Center for Advancing Translational Sciences (NCATS), 2013)
Potency is the fitted concentration of half-maximal effect; tags give direction and shape of the fitted curve.
